# Data reported in PubChem BioAssay AID1347073 (National Center for Advancing Translational Sciences (NCATS), 2019).
# The campaign covered roughly 45,000 compounds. About 200 (0.44%) were called active. Inconclusive results (about 7%) are left out. The call rests on the fitted dose curve; in most records, active means well fitted activation curve with a large enough effect; inconclusive means small, poorly fitted or top-dose-only effect; inactive means no such curve, though single readings can be large or run the other way. This is one part of the list.
# Assay: qHTS of TDP-43 Inhibitors: NCGC Sytravon Library Screen; further: 0% is about no effect; nearly all actives have a fitted effect of over 55% in size
# Conditions: yeast TDP-43 toxicity rescue, BacTiter-Glo growth, 24 h; series mostly up to 46.1 µM; growth rescue (activation): at the top concentration
# How it was run: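 TDP-43-expressing yeast, pregrown in raffinose, seeded at OD600 0.02 in galactose medium with compound for 24 hr at 30 deg C. Growth read by BacTiter-Glo luminescence, so rescue of toxicity appears as activation.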
row,Structure (SMILES),growth rescue (activation)
1,CCCOc1cccc(C2C(C(=O)c3cccs3)=C(O)C(=O)N2Cc2cccnc2)c1 (configuration not stated),inactive: 3.84%
2,O=C1N(Cc2ccccc2)CCCC12CCCN(Cc1ccccc1)C2=O,inactive: 16%
3,COc1ccc(/C=C/C(=O)c2cc(F)ccc2OC(=O)c2ccccc2C)cc1OC,inactive: 20.5%
4,CN1CCC(N(C)S(=O)(=O)c2ccc(NC(=O)c3ccc(S(=O)(=O)N(C)C)cc3)cc2)CC1,inactive: 7.41%
5,O=S(=O)(c1ccc(Br)s1)N1CCN(c2ccc(F)cc2)CC1,inactive: 1.75%
6,Cc1c(C(=O)OCC(=O)NC(=O)NC2CCCCC2)cccc1[N+](=O)[O-],inactive: 16.9%
7,COc1cccc(N(C(=O)c2snc(C(N)=O)c2N)C(C(=O)NCC2CCCO2)c2c[nH]c3ccccc23)c1 (configuration not stated),inactive: 0.118%
8,CCOCCCNC(=O)c1ccc2c(c1)ncn2-c1cccc(C)c1,inactive: 21.3%
9,COc1cccc2cc(S(=O)(=O)c3ccc(C)cc3)/c(=N/NS(=O)(=O)c3ccc(C)cc3)oc12,inactive: -3.43%
10,COCCNc1nc(NCCNC(C)=O)c2sc(-c3ccccc3)cc2n1,inactive: -4.28%
11,O=C(COc1ccc2c(-c3ccccc3)cc(=O)oc2c1)NC(Cc1c[nH]c2ccccc12)C(=O)O (configuration not stated),inactive: 29.5%
12,CCOC(=O)C1ON2CCCCC2C1(O)C(F)(F)F (configuration not stated),inactive: 2.17%
13,CCC(Sc1nc(-c2cccc(OC)c2)c(C#N)c(=O)[nH]1)C(=O)Nc1nnc(C(C)C)s1 (configuration not stated),inactive: -21%
14,O=C(O)CSCC(=O)NCc1ccc(Cl)cc1Cl,inactive: 7.58%
15,O=C(/C=C/c1ccccc1)NC1CCSC1=O (configuration not stated),inactive: 11.8%
16,Cc1cccn2c(=O)c3cc(C#N)c(=NC(=O)c4ccco4)n(Cc4ccco4)c3nc12,inactive: 3.4%
17,CC(C)(C)N(Cc1cc2ccccc2[nH]c1=O)C(=O)C1CCCCC1,inactive: 10.5%
18,CCOC(=O)c1c(C)[nH]c(C(=O)N(C)Cc2cccc(OC)c2OC)c1C,inactive: -39.5%
19,Cc1c(NC(=O)CN2CCN(c3ccc([N+](=O)[O-])cc3)CC2)c(=O)n(-c2ccccc2)n1C,inactive: -5.5%
20,Cc1ccc(NC(=O)c2noc3c2CCC3)cc1C,inactive: 39.5%
21,Clc1ccc(Cn2nc(-c3ccccc3)nc2-c2ccccc2)cc1,inactive: -0.814%
22,Cc1cnc(C(=O)OCC(=O)N2CCc3ccccc3C2)cn1,inactive: -9.26%
23,Nc1nc2ncc(C(=O)c3cc(F)ccc3O)cc2s1,inactive: 24.2%

row,Structure (SMILES),growth rescue (activation)
1,CCCC(=O)NC(c1ccc(C)cc1)c1ccc2cccnc2c1O (configuration not stated),inactive: 6.93%
2,COc1ccc(N(CC(=O)Nc2cc([N+](=O)[O-])ccc2C)S(C)(=O)=O)cc1OC,inactive: -24.7%
3,O=C(N/N=C/c1ccco1)c1ccc(NC(=O)c2ccc(Cl)cc2)cc1,inactive: -12.1%
4,O=C(CN1C(=O)COc2ccccc21)NCCCN1CCOCC1,inactive: -3.08%
5,NC(=S)N=Nc1c(O)n(CCCl)c2ccc(Br)cc12,inactive: 10.1%
6,O=C(COC(=O)c1cccc([N+](=O)[O-])c1)Nc1ncc(Br)s1,inactive: 13.6%
7,O=C(COc1ccc([N+](=O)[O-])cc1Cl)Nc1ccc2[nH]c(=O)[nH]c2c1,inactive: 1.55%
8,CSCC[C@H](NC(=O)COc1cc2c(c3oc(=O)c(C)c(C)c13)CCC(C)(C)O2)C(=O)O,inactive: -8.15%
9,Cn1cccc1CNC(=S)Nc1ccccc1Cl,inactive: -30.4%
10,Cc1ccc2nc(-c3ccc(NC(=O)COC(=O)c4ccco4)cc3)sc2c1,inactive: 15.7%
11,COCCn1c(SCC(=O)Nc2ccccc2)nnc1-c1ccoc1C,inactive: 3.67%
12,COC(=O)CCC(=O)Nc1sc(Cc2ccccc2)c(C)c1C(N)=O,inactive: -10.9%
13,CCN(CC)S(=O)(=O)c1cc(NS(=O)(=O)c2cccs2)ccc1C,inactive: 12.4%
14,COc1ccccc1N(C)S(=O)(=O)c1ccc(C(=O)O)cc1,inactive: 7.65%
15,CC(C)CN(C(=O)CN1CCN(c2ccccc2O)CC1)c1c(N)n(CC(C)C)c(=O)[nH]c1=O,inactive: 7.56%
16,CCCS(=O)(=O)NC(=O)C1(C)CCCN(C(=O)COCc2ccccc2)C1 (configuration not stated),inactive: -3.69%
17,COc1ccc(NC(=O)CSc2nnnn2C2CCCCC2)c(OC)c1,inactive: 12.9%
18,COC(=O)c1c(NC(NC(=O)c2ccccc2)(C(F)(F)F)C(F)(F)F)sc2c1CCN(C)C2,inactive: -4.56%
19,CC(=O)COc1ccc2cc(-c3ccccc3)c(=O)oc2c1,inactive: 5.08%
20,Nc1nc(NCCCN2CCOCC2)nc(Nc2ccccc2F)c1[N+](=O)[O-],inactive: -6.64%
21,Cc1cc(C)cc(-n2c(=O)c3ccccc3n(CC(=O)NCC3CCCO3)c2=O)c1 (configuration not stated),inactive: -3.61%
22,O=[N+]([O-])c1ccccc1Oc1cnc2ccccc2n1,inactive: 9.45%
23,O=C(NCCCc1ccncc1)C1CCC(=O)N(Cc2ccc(Cl)cc2)C1 (configuration not stated),inactive: -5.36%

row,Structure (SMILES),growth rescue (activation)
1,Cc1ccc(/C=N/NC(=O)c2ccco2)cc1,inactive: 13.2%
2,Cc1cccc(C)c1N=C1NN=C(c2ccccc2F)CS1,inactive: 5.08%
3,COc1cc(C(=O)Nc2ccc(S(=O)(=O)N3CCOCC3)cc2)c([N+](=O)[O-])cc1OC,inactive: 6.83%
4,O=C(O)CCC(=O)NCCc1cccc(Cl)c1,inactive: 5.64%
5,O=C(O)CC(NC(=O)Nc1ccccc1)c1ccc(OC2CCCC2)cc1 (configuration not stated),inactive: 7.66%
6,CCc1ccc(-c2csc(-c3c[nH]c4ccccc34)n2)cc1,inactive: 48.9%
7,COc1ccc(-n2nnc3c(SCC(=O)N4CCCc5ccccc54)ncnc32)cc1,inactive: -4.82%
8,O=C(CSc1nc(O)c(C2CCCCC2)c(=O)[nH]1)Nc1ccc(F)cc1,inactive: 21.4%
9,Cc1csc(NC(=O)/C=C/c2ccc3c(c2)OCO3)n1,inactive: 10.7%
10,O=C(O)C1C2CCC(C2)C1C(=O)Nc1cccc([N+](=O)[O-])c1 (configuration not stated),inactive: 4.53%
11,CCCNC(=O)NC(=O)CSc1nncs1,inactive: -5.12%
12,CCN(CC(=O)Nc1ccccc1C(F)(F)F)C(=O)CCc1c(C)[nH]c(=O)c(C#N)c1C,inactive: -20.1%
13,CCCSc1nsc(SCCC)c1C(N)=O,inactive: 28.3%
14,Cc1cccc(-n2c(-c3ccccc3)c[nH]c2=S)c1C,inactive: 9.44%
15,COc1ccc(C(=O)NNC(=O)CSc2nnnn2-c2cc(OC)cc(OC)c2)cc1,inactive: -10.8%
16,Cc1cccc(C)c1NC(=O)CN(C)C(=O)c1ccccc1C(=O)N(C)Cc1ccccc1,inactive: 11.9%
17,CCOc1ccc(C2c3[nH]c4ccccc4c3CCN2Cc2cccn2-c2ncccn2)cc1 (configuration not stated),inactive: -3.72%
18,Cc1cccc(NC(=O)CN2CCCCCC2)c1,inactive: 16.5%
19,Cc1ccc(C)c(Nc2ncnc(N)c2[N+](=O)[O-])c1,inactive: -3.83%
20,COc1ccc(/C=C/c2nc3ccccc3c(=O)n2-c2cccc(C(=O)O)c2)cc1,inactive: -9.75%
21,NC(c1csc(Nc2ccc(C(=O)NCCO)cc2)n1)C1CCCCC1 (configuration not stated),inactive: -2.82%
